According to PubChem BioAssay AID485294 (National Center for Advancing Translational Sciences (NCATS), 2010):
Out of some 370,000 compounds screened, about 150 (0.041%) were called active. Inconclusive means that the source gave no clear call. Such entries were picked first, then a sample of the others. The call rests on the fitted dose curve; in most records, active means well fitted inhibition curve with a large enough effect; inconclusive means small, poorly fitted or top-dose-only effect; inactive means flat fitted curve, though single readings scatter. Potencies of inconclusive entries are left out as doubtful fits.

Molecular target: Beta-lactamase (Escherichia coli (strain K12)) (UniProt P00811)
Sequence of UniProt P00811 (P00811 whole entry, looked up): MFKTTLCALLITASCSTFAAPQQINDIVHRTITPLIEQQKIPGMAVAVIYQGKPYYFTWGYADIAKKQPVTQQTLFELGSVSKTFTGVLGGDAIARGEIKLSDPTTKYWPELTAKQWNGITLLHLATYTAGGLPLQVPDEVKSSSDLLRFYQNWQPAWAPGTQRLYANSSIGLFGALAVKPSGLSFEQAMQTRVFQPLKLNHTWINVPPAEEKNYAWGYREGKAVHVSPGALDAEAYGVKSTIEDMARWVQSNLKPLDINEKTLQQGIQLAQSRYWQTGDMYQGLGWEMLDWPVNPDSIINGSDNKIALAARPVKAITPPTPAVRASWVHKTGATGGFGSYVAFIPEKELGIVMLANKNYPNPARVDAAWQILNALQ
Test: qHTS Inhibitors of AmpC Beta-Lactamase (assay with detergent); further: nearly all actives have a fitted effect of over 25% in size
Conditions: AmpC hydrolysis of nitrocefin, absorbance 480 nm, 0.01% Triton; series mostly up to 114 µM
How it was run: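 20 mM phosphate pH 7.0 + 0.01% (detergent screen) or 0.0001% Triton X-100; 5.3 nM AmpC reagent; cpd preinc 15 min RT; nitrocefin (800 uM stock) to start; A480 q20 s × 4 min; Activity was normalised to no-enzyme and no-compound control wells.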
Potency means the concentration at half of the fitted maximal effect; tags describe the fitted curve by direction and shape.

Compound | Potency
CS(=O)(=O)N1CCN(c2ccccc2NC(=S)NC(=O)c2ccccc2[N+](=O)[O-])CC1 | inconclusive [inhibitor, full curve, poor fit]
COc1ccc(C)cc1N(CC(=O)Nc1cccnc1)S(=O)(=O)c1ccc(C)cc1 | inactive
CCCC(=O)Nc1cc(Cl)ccc1N1CCN(C(=O)CC)CC1 | inconclusive [inhibitor, full curve]
Cc1oc(-c2ccc(Cl)cc2)nc1CS(=O)CC(=O)NC1CCCCC1 (centres undefined) | inactive
CCOc1ccccc1OCCCCN1CCCC1 | inactive
Cc1ccccc1-n1nc2c(c1NC(=O)c1c(-c3ccccc3Cl)noc1C)CSC2 | inactive
COc1ccc(C(C#N)N2N=C(C)CC2(C)C)cc1 (centres undefined) | inconclusive [inhibitor, partial curve, poor fit]
Nn1c(SCC(=O)Nc2ccc(OC(F)F)cc2)nnc(Cc2ccccc2)c1=O | inconclusive [inhibitor, full curve]
CC(=O)c1ccc(N2CCN(C(=O)C3CCN(S(=O)(=O)c4ccc5c(c4)CC(C)N5C(C)=O)CC3)CC2)cc1 (centres undefined) | inconclusive [inhibitor, full curve]
Cc1ccc(SC(C)C(=O)NCCC2=CCCCC2)cc1 (centres undefined) | inactive
CN(C)CC(C(=O)c1ccccc1)c1ccccc1 (centres undefined) | inconclusive [inhibitor, partial curve, poor fit]
COc1ccc2c(c1OC)C(=O)O[C@@H]2[C@H]1c2c(cc3c(c2OC)OCO3)CCN1C | inconclusive [inhibitor, partial curve, poor fit]
CCOc1ccc2c(O)csc2c1 | inconclusive [inhibitor, full curve]
CC(C)N(Cc1c(O)ccc2c(=O)c(-c3ccc(Cl)cc3)coc12)C(C)C | inactive
O=C(NC(=S)Nc1ccccc1C(=O)O)c1cncc(Br)c1 | inconclusive [inhibitor, full curve]
CNS(=O)(=O)c1ccc2c(c1)NC(=O)C1CCCN21 (centres undefined) | inconclusive [inhibitor, full curve, poor fit]
CCOc1ccc(N2CC(NC(=O)c3cc4ccccc4o3)CC2=O)cc1 (centres undefined) | inactive
CC(=O)Nc1ccc(NC(=O)CSc2nc(=O)n(Cc3ccncc3)c3c2CCC3)cc1 | inconclusive [inhibitor, full curve, poor fit]
COc1ccc(-c2nc(CCNC(=O)c3ccco3)cs2)cc1OC | inconclusive [inhibitor, partial curve]
O=C(Cc1cccs1)N/N=C\c1ccc(O)cc1 | inactive
COc1ccc(CC(=O)NCc2nnc(SCC(=O)Nc3nccs3)n2-c2ccccc2)cc1 | inconclusive [inhibitor, full curve]
Cc1cccc2[nH]c(SCC(=O)O)nc12 | inconclusive [inhibitor, partial curve]
Cc1ccc[n+](CC(=O)Nc2cc(C(F)(F)F)ccc2N2CCOCC2)c1 | inconclusive [inhibitor, partial curve]

Compound | Potency
O=C(Nc1ccccc1N1CCOCC1)c1cccc(NS(=O)(=O)c2ccc(F)c(F)c2)c1 | inconclusive [inhibitor, full curve, poor fit]
O=C(C1=NNCC1c1ccccc1)C1CO1 (centres undefined) | inactive
CCOc1ccc(-n2c(SCC(=O)Nc3ccc4c(c3)OCO4)nc3c(c2=O)SCC3)cc1 | inconclusive [inhibitor, partial curve, poor fit]
COCCn1c(C)cc(/C=C2/SC(=O)N(CC(=O)N3CCCC3)C2=O)c1C | inconclusive [inhibitor, partial curve, poor fit]
COc1ccc(NS(=O)(=O)c2cccc(C(=O)N/N=C/c3ccc4c(c3)OCCO4)c2)cc1 | inconclusive [inhibitor, single point]
Clc1ccc(Cn2nnc(-c3ccc(N4CCOCC4)cc3)n2)cc1 | inconclusive [inhibitor, full curve, poor fit]
O=C(Nc1cccnc1)c1cnc2ccccc2n1 | inconclusive [inhibitor, full curve, poor fit]
CCc1ccc(-c2ccc(C(=O)O)cc2)nc1 | inactive
CCN=C1SC(C(=O)Nc2cccc(Br)c2)CC(=O)N1CC (centres undefined) | inactive
COCCN1CCN(C(=O)C2CCC(=O)N(CCc3ccc(Cl)cc3)C2)CC1 (centres undefined) | inconclusive [inhibitor, full curve]
O=C1NC(=Nc2ccccc2)S/C1=C/c1cccnc1 | inconclusive [inhibitor, full curve, poor fit]
COc1ccc(C(=O)Nc2nc(C)cc(C)n2)cc1 | inactive
Cc1cc(C)n(CC(O)COc2ccc(Cl)cc2)n1 (centres undefined) | inconclusive [inhibitor, partial curve, poor fit]
CCOC(=O)CC(=O)CSc1nc2c(c(-c3cccs3)c1C#N)CCC2 | inactive
Cc1cc(Cl)ccc1OCC(=O)N1CCN(C)CC1 | inconclusive [inhibitor, full curve, poor fit]
O=C(CN1CCN(S(=O)(=O)c2cccc(F)c2)CC1)Nc1ccnn1C1CCCC1 | inactive
O=[N+]([O-])c1ccc(Sc2nccn2Cc2ccccc2)cc1 | inconclusive [inhibitor, full curve]
CN(C)c1ccc(/C=N/NC(=S)NCc2ccccc2)cc1 | inconclusive [inhibitor, full curve]
COCCn1c(SCC(N)=O)nc2c(c1=O)SC(C)C2 (centres undefined) | inconclusive [inhibitor, full curve, poor fit]
CS(=O)(=O)c1nc(S(=O)(=O)c2ccc(Cl)cc2)c(N2CCCCC2)s1 | inactive
Cc1nnc(SCC2=C(C(=O)O)N3C(=O)C(NC(=O)c4cc(F)c(F)cc4Cl)C3SC2)s1 (centres undefined) | inconclusive [inhibitor, partial curve]
CCCCCN1CC(=O)N2[C@@H](Cc3c([nH]c4ccccc34)C2(C)C)C1=O | inactive
N#C/C(=C/c1cn[nH]c1-c1ccc(Br)cc1)C(=O)O | inconclusive [inhibitor, partial curve, poor fit]

Compound | Potency
O=C(CCN1C(=O)S/C(=C\c2ccccc2)C1=O)N1CCCCC1 | inactive
O=C(COC(=O)/C=C/c1cccc(Cl)c1)Nc1ccc2[nH]c(=O)[nH]c2c1 | inconclusive [inhibitor, single point]
COc1cc(OC)c(C2=NOC(C(=O)O)C2)cc1Cl (centres undefined) | inconclusive [inhibitor, full curve, poor fit]
CC(=O)Nc1ccc(N2CCc3c(C)c(C#N)c4nc5ccccc5n4c32)cc1 | inconclusive [inhibitor, full curve, poor fit]
NC(=O)c1ccsc1NC(=O)c1ccc(S(=O)(=O)N2CCCc3ccccc32)cc1 | inconclusive [inhibitor, full curve, poor fit]
NS(=O)(=O)c1cccc(NC(=O)c2cccs2)c1 | inconclusive [inhibitor, partial curve]
COC(=O)c1[nH]c2c(c1C)C(=O)CC(c1ccc(OC)c(OC)c1)C2 (centres undefined) | inconclusive [inhibitor, single point]
Cn1c(CN2CCOCC2)nc2cc(NC(=O)c3ccc(F)cc3)ccc21 | inconclusive [inhibitor, full curve, poor fit]
O=C1c2ccccc2C(=O)C1(c1ccccc1)N1CCN(c2cccc(C(F)(F)F)c2)CC1 | inactive
Cc1cccc(C(=O)OCc2cc(=O)n3nc(C4CC4)sc3n2)c1 | inactive
COc1ccc(C(CNC(=O)CSc2ccccc2F)N2CCOCC2)cc1 (centres undefined) | inconclusive [inhibitor, full curve, poor fit]
Cc1ccc(C(=O)NNC(=O)CSc2n[nH]c(-c3cccnc3)n2)cc1 | inconclusive [inhibitor, single point]
CC(=O)N1CCN(S(=O)(=O)c2cccc(C(=O)N(C)Cc3ccc(C)o3)c2)CC1 | inconclusive [inhibitor, partial curve, poor fit]
CCOC(=O)c1c(CCl)nc2ccccc2c1-c1ccccc1 | inactive
COc1ccc(/C=C/C(=O)Oc2ccc(/C=N/NC(=O)c3ccccc3)cc2)cc1OC | inconclusive [inhibitor, partial curve]
CCCNC(=O)c1c(NC(=O)c2ccccc2F)sc2c1CCCCC2 | inactive
O=c1cc(CSc2nnc(COc3ccccc3)o2)c2ccccc2[nH]1 | inconclusive [inhibitor, partial curve, poor fit]
O=c1c(-c2ccccc2)nnc2sc(COc3ccc(Br)cc3)nn12 | inactive
CCn1cc(S(=O)(=O)CC(=O)Nc2cc(C)ccc2C)c2ccccc21 | inconclusive [inhibitor, full curve, poor fit]
COc1cc(OC)cc(C(=O)Nc2ccc(N3CCOCC3)cc2N2CCOCC2)c1 | inactive
O=C(Nc1ccc(F)cc1)c1ccc(S(=O)(=O)NCC2CCCO2)cc1 (centres undefined) | inconclusive [inhibitor, full curve, poor fit]
CCOc1ccc(-n2nc3c(=O)[nH]nc(C)c3c2C)cc1 | inconclusive [inhibitor, partial curve]
O=P(O)(O)Cc1ccccc1OP(=O)(c1ccccc1)c1ccccc1 | inconclusive [inhibitor, partial curve]
